In the RNAGym collection of RNA variant scans (doi:10.7554/elife.90254) one finds self-cleavage data, which are given here for 167 variants.

The source gives no read counts; variants with many changes may rest on few reads.

To fix the notation:
B1: LINE1-mini (parent)
chain: GGCAGAGCUCAACACAGCGUGGCAAAGUGGCUGUGGCUAGACUGCC

The data set covers variants of B1. Nature of the data set: self-cleavage, relative activity (ratio to wild type); higher = more cleavage; in vitro, sequencing; the parent is a self-cleaving ribozyme.
As for G2C C8A A14C A16C C31G, the self-cleavage stood at 0.06.

G2C G19A G33U A41G: the self-cleavage was found to be 0.03. To G2C U9C A14C G19U G22U G27A belongs 0.01. To G2A G7U C10G G30U belongs 0.03.

On to G2A G19U U20A G22A, for which the self-cleavage turned out to be 0.44. In the case of G2C A4G C10A G40C U43C it was 0.01; in that of G2C C10A C23A, 0.01; in that of G2C C10U G17A, 0.03. To G2C A14U G29U belongs 0.08; to G2C C8U A26U G29U G30A, 0.08; to G2A G5C A12G G22C G27C G36A, 0.05. To G2A G21A A24C G29U C37G belongs 1.21.

As for G2A G29A G33U G44A, the self-cleavage was 0.11. To G2C C3U G27U U32A belongs 0.05; to G2C C10A G19A U32G G35U, 0.01.

Consider G2A U9C C31U, for which the self-cleavage turned out to be 0.04. In the case of G2C G5U A14U A26U C31U G35U, the self-cleavage came out at 0.04. To G2A G5U C8A G44C belongs 0.58. With G2C A11C G21C C31A, the self-cleavage was 0.01. In the case of G2A U9A U34G G44U it was 0.04; in that of G2A G30U U38C, 0.15.

Turning to G2A G5U C45G, the self-cleavage was found to be 0.4. In the case of G2A G19U U32A, the self-cleavage is 0.08. In the case of G2C U9C A16C A26G U28A G40U it was 0; in that of G2A G35C C42A, 0.06; in that of G2A G30U C42A, 0.21.

As to G2A G5C C10A U34A U38C, the self-cleavage was found to be 0. To G2A G33U G36A belongs 0.1; to G2C A12C G17U, 0.07. Turning to G2C C8U A16U U28A, the self-cleavage was 0.11. In the case of G2A G19A G33C it was 0.03; in that of G2C G7A A11C G30A C37U, 0; in that of G2C A4U C15G G30C U43A, 0.01. To G2C C15A G27C belongs 0.08; to G2C C10A C15G C23G U32A U34A A39C, 0; to G2C A6U C18A U32G, 0.04. To G2C U9A U34A G36C A39U A41G belongs 0.02. As to G2A G21U G40U, the self-cleavage amounted to 0.12. To G2C A12U A14C U20A belongs 0.02. As for G2C A16C U20G G44U, the self-cleavage is 0.02. G2C G5C A24C: the self-cleavage was 0.01. To G2C C18A U32C A41C belongs 0.02.

In the case of G2A G5U A39U, the self-cleavage was 0.2. To G2C A4C A24C C42A belongs 0.01; to G2C C10U A16U A41U, 0.01.

For the variant G2A G21C G29C, the self-cleavage was determined as 0.36. Regarding G2C U9A C10U G35U C37G, the self-cleavage stood at 0.07.

For G2C C8U A11G G40A G44U, the self-cleavage stood at 0.02. In the case of G2A G19A A25C G30C U32A U38C it was 0.16; in that of G2A U20A G36C, 0.04. In the case of G2C G21U A26C G30A C45A it was 0.21; in that of G2A G7C C23A G27U G40U, 0.25; in that of G2C C23U U34G C42U, 0.14. In the case of G2C A12C G40A it was 0.01.

In the case of G2C A6U G36A, the self-cleavage stood at 0.18.

With G2C G29U G30C C42A U43A, the self-cleavage worked out at 0. With G2C A12C C23U A41G, the self-cleavage is 0. In the case of G2A G29U U32C G33A it was 0.19; in that of G2C C10A G30A C42A, 0.01. Take G2C G35A G36A: the self-cleavage is 0.06. For G2C A6G G21U C31G, the self-cleavage was determined as 0.04.

As for G2C C10A G17C G35U, the self-cleavage was 0.03. In the case of G2C G27U C46U it was 0.12; in that of G2C G19C G44C, 0.01; in that of G2C A4G G5U C10U G21U, 0.04. As for G2A U9A C18G G40C, the self-cleavage is 0.03. To G2A G7C A11C G40U belongs 0.04; to G2C C3A G7C A16U C23A U28C C37G, 0.42.

For the variant G2C C10A C31G G36U, the self-cleavage came out at 0.1. With G2C G7A G36C, the self-cleavage was determined as 0.02. With G2A G17C C37U, the self-cleavage is 0.74. In the case of G2A U28A G29U it was 0.3; in that of G2C G7U C10G C46A, 0.02. To G2C A6U G17C U32A U38A belongs 0.07; to G2C A11G A12C G30A C42U, 0; to G2C A16U G21C U28G, 0.01. In the case of G2C A4U C23A C37A it was 0.05; in that of G2A G5C C10A A26G U43G, 0.

G2C C13G U20G A39C G40A: the self-cleavage was 0.02. In the case of G2A G22A A25G G44C it was 0.7. To G2C G19C C37U belongs 0.07; to G2C G7C A24U A26G G40C G44A, 0.01. In the case of G2C C8G G44A it was 0.04. On to G2C C31A G33A C45U, for which the self-cleavage was 0.01. With G2C A14C G22A C31U, the self-cleavage was determined as 0.01. To G2A G5C C18A A26U G30A A39G belongs 0.05; to G2C G19A U20A U38G, 0. G2C C18G A25C: the self-cleavage worked out at 0.06. In the case of G2C A12U G22A G29U it was 0.66. To G2C C18A U28A belongs 0.03; to G2C G7A G27C, 0.13; to G2C G27U G35C C45A, 0.03.

Take G2C C10A G33A: the self-cleavage was determined as 0.03.

Turning to G2C C13U G17C A39C, the self-cleavage was found to be 0.13. In the case of G2C A14U C15G C18A G19U G21U G30U U34C it was 0.04.

In the case of G2C C13U C42U C46G, the self-cleavage is 0.06.

For G2C A6G A16C G17C C23U A26C G44U, the self-cleavage was found to be 0.09. Turning to G2C A14U G21U, the self-cleavage was 0.19. In the case of G2C G5U A25C A26C G30A it was 0.01; in that of G2C C15G G19A G40A, 0.02; in that of G2C C3A A4U A6U G21C A24U U32A U34C, 0.01. To G2C G7A A11C A12G belongs 0.07; to G2C G7U U9A C13G U28G, 0.02. In the case of G2A U20C G30C U34G G35C C45A it was 0.34; in that of G2C C3A C13A A24G G29C, 0.04. With G2C A25C C46U, the self-cleavage was found to be 0.19. To G2A G21A U28G G35A belongs 0.96; to G2C G22A C23G U28G U32C U38A U43A, 0.01. In the case of G2C G19A C46G it was 0.58; in that of G2A G7U G40U, 0.46; in that of G2C A12C G21U, 0.01. As to G2A G7C U9C A12U C13U A24C C42A, the self-cleavage came to 0.06. To G2C A14G G21C belongs 0.07; to G2C A6G C13U A39C, 0.07; to G2C C10U U28C G33C, 0.05. In the case of G2C A6G A14C G21C G29A U43C it was 0.01. For the variant G2C G7U C8G C42A, the self-cleavage stood at 0.09. G2C A4U C8U U20C A39G: the self-cleavage worked out at 0.07.

As for G2A U28A A39G, the self-cleavage was found to be 0.41. For G2A G5U A12G U20C C31A C45G C46G, the self-cleavage stood at 0.08. In the case of G2C C10A A14U A25G G40U, the self-cleavage was 0.01.

Consider G2A G27U G30U C31A, for which the self-cleavage was 1.16. To G2A G35U C42G belongs 0.22; to G2C C3U C8G, 0.04; to G2C G5U C8U C18A C42U, 0.05.

Take G2A U9G A25G G29A G44U: the self-cleavage was found to be 0.06. To G2C G17C G35U belongs 0.01; to G2C C3G G17U G44C C46U, 0.03; to G2A G19A C46A, 0.63. In the case of G2C C3G C10G, the self-cleavage came out at 0.06.

Take G2C C3G C10A: the self-cleavage stood at 0.04.

On to G2C C31U G40C, for which the self-cleavage worked out at 0.23. Consider G2A G21U G36U, for which the self-cleavage was found to be 0.06. In the case of G2C G21A C46A it was 0.38; in that of G2C A12C G30U C37U, 0.01; in that of G2C A6C C31U A41G, 0.04. Take G2A G7U G35U: the self-cleavage turned out to be 0.91. To G2C G27A G29U C37A belongs 0.01; to G2C C3A U38C C42U, 0.07. In the case of G2C C3A G29A U34G it was 0.06; in that of G2C A4U A25U C37U, 0.2. In the case of G2C A24C G33A A39U it was 0. Take G2A G5U C46U: the self-cleavage came out at 0.26. To G2C C10A G44U belongs 0.02. To G2C A12G U20C U32A belongs 0.03; to G2C G5U C8A C31A, 0.07.

Consider G2C U9A A16G G35U C37U, for which the self-cleavage was determined as 0.1.

Consider G2C A12U G19A, for which the self-cleavage is 0.04. In the case of G2C C10A A24U it was 0.02; in that of G2C C3A A16U G29A, 0.12; in that of G2C C10G A11U A16C A25C U28G, 0.01. For G2A U20C A26U U28C, the self-cleavage was 0.26. To G2C A6C G7C belongs 0.08; to G2A U9C C13G A14G U20C G40U, 0.03. To G2C C13U A25G belongs 0.06; to G2C A6C G17A G22C G33U, 0.02. In the case of G2A U9A A11U U28G U34G A41U G44A it was 0.01; in that of G2C G7U U32G G35U, 0.06; in that of G2A G19C G35U A39G, 0.23. Take G2A G17U A24U: the self-cleavage came out at 0.12. To G2C G27A G44U belongs 0.14; to G2C C15A G22C, 0.06; to G2A G17A G29A, 0.36. G2C C3A G5C G19U: the self-cleavage worked out at 0.06. To G2C C15A C46G belongs 0.11.

For the variant G2A U9G A14G U20C G21A, the self-cleavage is 0.39.

With G2C A4G A24C, the self-cleavage is 0.02.
